Results as given in patent publication US11866509B2, “Humanized antibodies against CEACAM1” (Famewave Ltd., priority 2014, dated 2024).

Columns and labels:
[1] = test system: Human peripheral blood mononuclear cells (PBMCs) and whole blood; assay: T cell proliferation and pro-inflammatory cytokine secretion in PBMCs and whole blood; format: cell-based; conditions: 10 healthy donors; soluble or dry-coated immobilized formats
Protocol: Pre-clinical evaluation of the safety of CM-24 included assessment of the effect of CM-24 on T cell proliferation and pro-inflammatory cytokine secretion. Human peripheral blood mononuclear cells (PBMCs) and whole blood from 10 healthy donors were evaluated and the antibody was presented by both soluble and immobilized form.

[2] = test system: CEACAM1 positive non-target cells (human normal cells); assay: Cytotoxic activity of effector lymphocytes against non-target cells; format: cell-based
Text: (§1) CM-24 enhances the cytotoxic activity of effector cells in the presence of CEACAM1 positive tumor cells and in the context of a specific human leukocyte antigen (HLA)-restricted T cell reaction.

CEACAM1 [3] = molecular target: T1, CEACAM1 (Homo sapiens, UniProt P13688); assay: In vitro functional assays for agonistic activity; format: cell-based
T1 sequence (P13688 35-526): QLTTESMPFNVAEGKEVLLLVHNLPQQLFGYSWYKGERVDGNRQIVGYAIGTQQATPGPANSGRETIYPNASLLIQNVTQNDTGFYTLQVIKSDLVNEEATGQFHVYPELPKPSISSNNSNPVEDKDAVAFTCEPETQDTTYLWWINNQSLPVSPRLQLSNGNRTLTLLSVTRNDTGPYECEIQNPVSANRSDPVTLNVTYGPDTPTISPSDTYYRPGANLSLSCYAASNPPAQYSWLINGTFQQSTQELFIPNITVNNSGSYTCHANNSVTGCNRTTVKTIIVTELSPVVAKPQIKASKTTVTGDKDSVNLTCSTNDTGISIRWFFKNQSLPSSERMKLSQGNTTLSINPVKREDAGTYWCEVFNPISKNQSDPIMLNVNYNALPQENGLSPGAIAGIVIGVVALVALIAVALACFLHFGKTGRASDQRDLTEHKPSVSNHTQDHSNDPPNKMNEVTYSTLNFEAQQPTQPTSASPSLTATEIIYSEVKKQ
Text: as §1

[4] = test system: granzyme B secretion of human TIL cells (TIL14); assay: Granzyme B ELISA in TIL / melanoma co-culture; format: cell-based
Protocol: FIGS. 5A-5B Synergistic effects of anti-CEACAM1 and anti-PD-1 antibodies on Granzyme B levels and the cytotoxicity of human TIL cells against human melanoma cells when anti-PD-1 antibodies are added prior to the addition of anti-CEACAM1 antibodies. Human melanoma cells were grown in the presence of IFN-ã to induce PD-L1 expression. Human TIL cells were incubated with medium only (black), non-specific IgG antibody (white), various concentrations of a monoclonal antibody to human CEACAM1 (vertical lines), a monoclonal antibody to human PD-1 (horizontal lines) or a combination of both antibodies (dots). (FIG. 5A) Results represent an average of % cytotoxicity ±SE as determined by classical LDH release assay from triplicate wells per treatment. * P≤0.05 paired T-test compared to a-PD-1 only. (FIG. 5B) Results represent Granzyme B levels ±SE as determined by commercial Granzyme B ELISA kit from triplicate wells per treatment.
Human melanoma cancer cells (MALME 3M) were grown in the presence of IFN-ã to induce PD-L1 expression. […] The combination index (CI) was calculated to be 0.15. In the same assay, the level of the cytotoxic protein granzyme B that is secreted upon cytotoxic cell activation was evaluated by commercial granzyme B ELISA Kit. […] The combination index (CI) was calculated to be 0.67. […]

[5] = test system: complement component—C1q and the ADCC mediator-Fcγ-RIIIa; assay: Binding to Fc effector mediators; conditions: IgG4
Text: as §1

CEACAM1 [6] = molecular target: T1, CEACAM1; assay: Binding of CM-24 to CEACAM1 (pre-clinical summary)

B1: CM-24: back-mutated humanized IgG4 anti human CEACAM1 monoclonal antibody; light chain SEQ ID NO: 52, heavy chain SEQ ID NO: 53 (antibody)
heavy: QVQLVQSGAEVKKPGASVKVSCKASGYAFTNNLIEWVRQAPGQGLEWIGVINPGSGDTNYNEKFKGRVTMTADKSISTAYMELSRLRSDDTAVYYCARGDYYGGFAVDYWGQGTTVTVSSASTKGPSVFPLAPCSRSTSESTAALGCLVKDYFPEPVTVSWNSGALTSGVHTFPAVLQSSGLYSLSSVVTVPSSSLGTKTYTCNVDHKPSNTKVDKRV[letters of human IgG4 Fc with S228P (EU numbers) left out]
light: DIQMTQSPSSLSASVGDRVTITCRTSQDIGNYLNWYQQKPGKAVKLLIYYTSRLHSGVPSRFSGSGSGTDYTLTISSLQPEDIATYFCQQGKSLPRTFGGGTKVEIKRTVAAPSVFIFPPSDEQLKSGTASVVCLLNNFYPREAKVQWKVDNALQSGNSQESVTEQDSKDSTYSLSSTLTLSKADYEKHKVYACEVTHQGLSSPVTKSFNRGEC
[1]
  T cell proliferation: no apparent CM-24-induced proliferation
  pro-inflammatory cytokine secretion: no significant pro-inflammatory cytokine secretion
[2]
  cytotoxic activity of effector lymphocytes against non-target cells: does not enhance
CEACAM1 [3]
  agonistic activity: does not induce agonistic activity
[4]; CM-24 with mAb to human PD-1 (clone E12.2H7), anti-PD-1 added first
  granzyme B secretion: increases the granzyme B secretion
[4]; CM-24 with mAb to human PD-L1 (clone 29E.2A3), anti-PD-L1 added first
  granzyme B secretion: increases the granzyme B secretion
[5]
  binding to C1q and Fcγ-RIIIa: unable to bind
CEACAM1 [6]
  binding to human CEACAM1: high affinity and selective binding
